# In PubChem BioAssay (NCATS):
# Inconclusive results, whose numbers are uncertain, are shown with a selection of clear calls. Potencies of inconclusive entries are doubtful fits and often do not repeat. Calls of active or inactive are those of the source. The call rests on the fitted dose curve; in most records, active means well fitted cell-killing curve with a large enough effect; inconclusive means small, poorly fitted or top-dose-only effect, or effect the other way; inactive means no such curve, though single readings can be large or run the other way.
# Assay: Quantitative High-Throughput drug screen in 47 multiple myeloma cell lines against the NCATS MIPE library collection: PE2_PLB cell viability assay (AID 1919869); further: nearly all actives have a fitted effect of over 35% in size
# Conditions: PE2_PLB myeloma cells viability, ATP luminescence, 48 h; series mostly up to 45.8 µM; viability (% of control): at the top concentration
# Description: PI: Beverly A. Mock Ph.D.
# Laboratory of Cancer Biology and Genetics,
# Center for Cancer Research, National Cancer Institute,
# National Institute of Health, Bethesda, Maryland
# Drug resistance and disease progression are common in multiple myeloma (MM) patients, underscoring the need for new therapeutic combinations. […] We hypothesized that effective combinations would reduce MYC expression and enhance p16 activity. […] These preclinical data identify potentially useful drug combinations for evaluation in drug-resistant MM and reveal potential mechanisms of combined drug sensitivity.
# Described herein is the primary MIPE qHTS used to cherrypick compounds. Validated compounds were then further tested for potential synergistic activiy.
# [1] Peat TJ, Gaikwad SM, Dubois W, Gyabaah-Kessie N, Zhang S, Gorjifard S, Phyo Z, Andres M, Hughitt VK, Simpson RM, Miller MA, Girvin AT, Taylor A, Williams D, D'Antonio N, Zhang Y, Rajagopalan A, Flietner E, Wilson K, Zhang X, Shinn P, Klumpp-Thomas C, McKnight C, Itkin Z, Chen L, Kazandijian D, Zhang J, Michalowski AM, Simmons JK, Keats J, Thomas CJ, Mock BA. Drug combinations identified by high-throughput screening promote cell cycle transition and upregulate Smad pathways in myeloma. Cancer Lett. 2023 Aug 1;568:216284. doi: 10.1016/j.canlet.2023.216284. Epub 2023 Jun 24. PMID: 37356470; PMCID: PMC10408729.
# SEQUENCE No. (e.g., 1, 2, 3, etc.); […] (e.g., Cells, Incubation, Reagent, etc.); VALUE and DESCRIPTION.
# 1; Cells; 5 uL; white, solid bottom 1536-well Greiner assay plate.
# 2; Compounds; 23 nL; Kalypsis pin tool (Wako USA) equipped with a 1536-well pin head to transfer to the assay plates.
# 3; Incubation; 48 hours; 37C incubation.
# 4; Reagent;5uL; CellTiter Glo (Promega).
# 5; Detector; 425V; Luminescence; Viewlux PerkinElmer.
# NOTES (numbers refer to Sequence numbers above)
# 1. The cell-based screening methods employed in this study were like those previously published. Briefly, the corresponding myeloma cell lines were screened in 1,536-well plates with 500 cells, 5-uL per well for inhibition of cell viability (assessed by measuring ATP levels with CellTiterGlo).
# 2. NCATS MIPE 4.0 library of approved and investigational drugs were added using the Kalypsis pin tool. Wells treated with DMSO only for 100% viability and media only for 0% viability were used as controls.
# 3. The assay plates were covered and incubated for 48 hours in a 37C, 5% CO2 incubator with controlled humidity.
# 4. After 48 hours, CellTilter-GloTM luminescent substrate mix (Promega) reagent was added to the assay plate and plates we incubated for 5 min at room temperature.
# 5. Signal was measured as median relative luminescence units on a ViewLux (PerkinElmer) multiplate reader.
# [1] Heske CM, Davis MI, Baumgart JT, Wilson K, Gormally MV, Chen L, Zhang X, Ceribelli M, Duveau DY, Guha R, Ferrer M, Arnaldez FI, Ji J, Tran HL, Zhang Y, Mendoza A, Helman LJ, Thomas CJ. Matrix Screen Identifies Synergistic Combination of PARP Inhibitors and Nicotinamide Phosphoribosyltransferase (NAMPT) Inhibitors in Ewing Sarcoma. Clin Cancer Res. 2017 Dec 1;23(23):7301-7311. doi: 10.1158/1078-0432.CCR-17-1121. Epub 2017 Sep 12. PMID: 28899971; PMCID: PMC6636827.
# Potency means the concentration at half of the fitted maximal effect; tags describe the fitted curve by direction and shape.
SMILES,Potency,viability (% of control)
Cc1ccc(Nc2cc(-c3cccc(N4C(=O)c5ccccc5C4=O)c3)ncn2)cc1NS(C)(=O)=O,active: 16.6 µM,–
CCCCCCCCCCCCCCCC(=O)OC[C@@H](NC(=O)C(Cl)Cl)[C@H](O)c1ccc([N+](=O)[O-])cc1,–,inactive: 124%
CC(=O)O[C@]1(C(C)=O)CC[C@H]2[C@@H]3C=C(Cl)C4=CC(=O)[C@@H]5C[C@H]5[C@]4(C)[C@@H]3CC[C@@]21C,active: 11.8 µM,–
Cc1ccc(N(CC2=NCCN2)c2cccc(O)c2)cc1,"inconclusive: 37.2 µM [cytotoxic, single point]",–
O=C(O)c1ccc(-c2cc3cccnc3c(-c3ccc4nonc4c3)n2)cc1,"inconclusive: 33.2 µM [cytotoxic, single point]",–
CCOC(CN1C(=O)[C@](CC(=O)Nc2ccc(C)cc2)(NC(=O)Nc2ccc(C)cc2)c2ccccc21)OCC,active: 23.5 µM,–
COc1ccc(CC2SC(=O)NC2=O)cc1C(=O)NCc1ccc(C(F)(F)F)cc1 (stereo not given),"inconclusive: 26.4 µM [cytotoxic, single point]",–
Cn1cc(C=C2C(=O)Nc3cccnc32)c2ccccc21,"inconclusive: 18.7 µM [cytotoxic, partial curve]",–
CN(C)CCOC(c1ccccc1)c1ccccc1,active: 7.43 µM,–
COc1ccccc1OCCNCC(O)COc1cccc2[nH]c3ccccc3c12 (stereo not given),–,inactive: 83.8%
CCOC(=O)c1c(CSc2ccccc2)n(C)c2cc(Br)c(O)c(CN(C)C)c12,"inconclusive: 14.8 µM [cytotoxic, partial curve]",–
CCCc1cc(=O)[nH]c(=S)[nH]1,–,inactive: 103%
CCC[C@@H](NC(=O)[C@@H]1[C@H]2CCC[C@@H]2CN1C(=O)[C@@H](NC(=O)[C@@H](NC(=O)c1cnccn1)C1CCCCC1)C(C)(C)C)C(=O)C(=O)NC1CC1,"inconclusive: 18.7 µM [cytotoxic, partial curve, poor fit]",–
N[C@@]1(C(=O)O)CS(=O)(=O)[C@H]2[C@H](C(=O)O)[C@H]21,"inconclusive: 16.6 µM [cytotoxic, partial curve]",–
C#C[C@]1(O)CC[C@H]2[C@H]3CCc4cc(OC)ccc4[C@H]3CC[C@@]21C,"inconclusive: 16.6 µM [cytotoxic, partial curve, poor fit]",–
CCCNCC(O)COc1ccccc1C(=O)CCc1ccccc1 (stereo not given),–,inactive: 87%
Nc1ccn([C@@H]2O[C@H](CO)[C@@H](O)[C@H]2O)c(=O)n1,–,inactive: 92.9%
CCCCc1ccc(NS(=O)(=O)c2ccc(C)c(C(=O)N3CCN(c4cccc(C)c4C)CC3)c2)cc1,"inconclusive: 33.2 µM [cytotoxic, single point]",–
OCCCNc1cc(-c2ccnc(Nc3cccc(Cl)c3)n2)ccn1,active: 0.0372 µM,–
CC(C)n1nc(-c2ccc3oc(N)nc3c2)c2c(N)ncnc21,"inconclusive: 0.0037 µM [cytotoxic, full curve]",–

SMILES,Potency,viability (% of control)
CC1(C)[C@H](C(=O)O)N2C(=O)C[C@H]2S1(=O)=O,–,inactive: 125%
CC[C@H]1OC(=O)[C@H](C)C(=O)[C@H](C)[C@@H](O[C@H]2O[C@H](C)C[C@H](N(C)C)[C@@H]2O)[C@](C)(OC)C[C@@H](C)C(=O)[C@H](C)[C@H]2N(CCCCn3cnc(-c4cccnc4)c3)C(=O)O[C@]12C,"inconclusive: 20.9 µM [cytotoxic, partial curve]",–
O=c1[nH]c(=O)n([C@H]2C[C@@H](O)[C@@H](CO)O2)cc1F,active: 14.8 µM,–
O=C(O)c1nc(=O)[nH]c(=O)[nH]1,"inconclusive: 7.24 µM [cytotoxic, partial curve, poor fit]",–
Cc1nnc(C(C)C)n1C1C[C@H]2CC[C@@H](C1)N2CC[C@H](NC(=O)C1CCC(F)(F)CC1)c1ccccc1 (stereo not given in full),"inconclusive: 37.2 µM [cytotoxic, single point]",–
CC(C)n1cnc2c(NCCCCCCNC(=O)OC(C)(C)C)nc(NCCO)nc21,"inconclusive: 20.9 µM [cytotoxic, partial curve]",–
Cn1cc(-c2ccc3nnc(C(F)(F)c4ccc5ncccc5c4)n3n2)cn1,–,inactive: 103%
NC(=O)OCC(COC(N)=O)c1ccccc1,–,inactive: 109%
CCC(=O)N[C@H]1CC[C@H](C(=O)N(C)c2ccc(-c3nc4ccccc4o3)cc2)C1,active: 13.2 µM,–
Cc1cn([C@H]2C=C[C@@H](CO)O2)c(=O)[nH]c1=O,"inconclusive: 67.9 µM [cytotoxic, single point]",–
Nc1nnc(-c2cccc(Cl)c2Cl)c(N)n1,"inconclusive: 29.6 µM [cytotoxic, single point]",–
CC(C)(C)c1[nH]cnc1C=c1[nH]c(=O)c(=Cc2ccccc2)[nH]c1=O,"inconclusive: 0.0121 µM [cytotoxic, full curve]",–
O=C1c2c(O)cc(O)cc2OC(c2ccc(O)c(O)c2)C1O (stereo not given),"inconclusive: 0.0118 µM [rising, full curve, poor fit]",–
OCCN(CCO)c1nc(N2CCCCC2)c2nc(N(CCO)CCO)nc(N3CCCCC3)c2n1,"inconclusive: 23.5 µM [cytotoxic, partial curve, poor fit]",–
CCC(=O)O[C@]1(C(=O)CO)CC[C@H]2[C@@H]3CCC4=CC(=O)CC[C@]4(C)[C@@H]3CC[C@@]21C,–,inactive: 88.2%
CCC1=C(C)CN(C(=O)NCCc2ccc(S(=O)(=O)NC(=O)NC3CCC(C)CC3)cc2)C1=O (stereo not given),–,inactive: 127%
Clc1ccc(C(Cn2ccnc2)OCc2ccsc2Cl)c(Cl)c1 (stereo not given),"inconclusive: 20.9 µM [cytotoxic, partial curve]",–
Clc1ccc(COC(Cn2ccnc2)c2ccc(Cl)cc2Cl)cc1 (stereo not given),"inconclusive: 20.9 µM [cytotoxic, partial curve]",–
O=C(O)C1=NC(C(=O)O)CC(C=CN2c3cc(O)c(OC4OC(CO)C(O)C(O)C4O)cc3CC2C(=O)O)=C1 (stereo not given),–,inactive: 133%
O=C(Nc1cc(Cl)cc2c1[nH]c1cnccc12)c1cccnc1,"inconclusive: 5.26 µM [cytotoxic, full curve]",–
